In PubChem BioAssay AID488969 (Vanderbilt High Throughput Screening Facility, 2010):
The full ranking holds about 110,000 compounds; the median of “z-score” is about -0.1, and the highest 2% start at about 2. The list shows a part of the results. The source made the active and inactive calls.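 Rule for the calls: active = z-score in the third read window above 3 or below -3; inactive = the rest.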

Each compound was assayed against Metabotropic glutamate receptor 8 (Rattus norvegicus) (UniProt P70579) (assay: mGluR8 Gi/Go-coupled signaling modulation – cell-based, rat, thallium flux, HTS, primary screen (AID 488969)). Settings: HEK293 rat mGluR8, GIRK (G protein-gated inwardly rectifying potassium channel) thallium flux, FluoZin2; at 10 µM; stronger effect = higher value; submaximal glutamate (EC20) added with thallium.
Sequence of UniProt P70579 (P70579 whole entry, looked up): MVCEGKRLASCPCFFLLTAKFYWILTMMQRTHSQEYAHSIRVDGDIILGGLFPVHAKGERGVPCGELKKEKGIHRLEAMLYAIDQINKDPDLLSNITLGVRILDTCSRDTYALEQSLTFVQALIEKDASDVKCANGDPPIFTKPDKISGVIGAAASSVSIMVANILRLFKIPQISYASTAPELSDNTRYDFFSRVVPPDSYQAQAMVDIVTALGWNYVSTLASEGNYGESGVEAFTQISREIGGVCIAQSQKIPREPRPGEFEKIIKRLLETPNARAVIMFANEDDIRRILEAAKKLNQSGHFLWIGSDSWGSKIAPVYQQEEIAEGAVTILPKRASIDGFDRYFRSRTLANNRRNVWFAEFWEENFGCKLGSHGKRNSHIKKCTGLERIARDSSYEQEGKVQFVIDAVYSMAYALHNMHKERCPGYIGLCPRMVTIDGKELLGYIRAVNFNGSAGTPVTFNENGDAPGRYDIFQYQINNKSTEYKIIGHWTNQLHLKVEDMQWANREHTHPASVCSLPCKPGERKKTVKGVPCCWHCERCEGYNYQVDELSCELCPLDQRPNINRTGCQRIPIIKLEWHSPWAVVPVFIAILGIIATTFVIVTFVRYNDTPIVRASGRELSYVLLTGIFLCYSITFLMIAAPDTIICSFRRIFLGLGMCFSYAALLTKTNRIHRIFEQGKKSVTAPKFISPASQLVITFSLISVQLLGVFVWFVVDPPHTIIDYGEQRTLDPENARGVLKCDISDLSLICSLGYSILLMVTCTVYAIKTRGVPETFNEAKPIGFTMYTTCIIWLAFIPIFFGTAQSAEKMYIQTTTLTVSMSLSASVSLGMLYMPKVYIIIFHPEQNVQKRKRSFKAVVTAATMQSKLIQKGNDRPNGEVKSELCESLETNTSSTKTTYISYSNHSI

| Structure (SMILES) | z-score |
| --- | --- |
| CC(=O)CN1Cc2ccccc2/C1=N\C(=O)Nc1ccccc1 | active: 3.19 |
| COc1ccccc1NC(=S)NCCN1CCOCC1 | 0.187 |
| CCCn1c(SCC(=O)c2c[nH]c3ccccc23)nnc1-c1ccncc1 | -0.22 |
| CCOC(=O)c1c(C)nc2c(c(SC)nn2-c2ccccc2)c1N | -0.334 |
| Cc1ccc2cc(CCNC(=O)c3ccc(Br)o3)c(=O)[nH]c2c1 | -0.963 |
| CC1C(c2ccccc2)N(C)C(c2ccccc2)C(C)C1(O)C#Cc1ccccc1 (stereo not given) | -0.0784 |
| Cc1ccc(N2CCN(C(=O)c3ccccc3)CC2)c(C)c1 | -0.434 |
| CCCOC(=O)C(C)n1c(-c2ccccc2)nc2ccccc2c1=O (stereo not given) | 0.0386 |
| COc1ccc(C(=O)OCC(=O)NC(=O)CCSc2ccccc2)cc1 | 0.0536 |
| C[C@@H](C(=O)OCC(=O)Nc1cc(S(=O)(=O)N2CCOCC2)ccc1Cl)N1C(=O)C2CCCCC2C1=O (stereo not given in full) | 0.333 |
| CC(Oc1ccccc1)C(=O)Nc1ccccc1F (stereo not given) | -0.841 |
| CC(NC(=O)OC(C)(C)C)C(=O)Oc1ccc2ccc(=O)oc2c1 (stereo not given) | -0.43 |
| O=c1nc2ccccc2c2n1CC(CN1CCN(c3ccccc3F)CC1)N2 (stereo not given) | 0.222 |
| CSCSC1=C(C#N)C(c2ccccc2Cl)C(C(C)=O)=C(C)N1 (stereo not given) | -2.68 |
| CC(=O)N1CCN(c2ccccc2NC(=O)c2cc(Br)ccc2Cl)CC1 | 0.166 |
| CC(C)(C)/C(O)=C/c1nc2ccccc2[nH]c1=O | -0.317 |
| COC(=O)c1ccc(COc2cccc3c2CCN(Cc2cccc(C)c2)C3=O)o1 | -0.424 |
| COc1ccc(NS(=O)(=O)c2cc(C)ccc2C)cc1 | -0.157 |
| O=C(Nc1ccncc1)c1cccc(F)c1 | 0.415 |
| CN(C)S(=O)(=O)c1ccc(C(=O)N2CCCC2c2nc3ccccc3s2)cc1 (stereo not given) | 0.13 |
| N/C(Cc1ccc([N+](=O)[O-])cc1)=N\OC(=O)C(c1ccccc1)c1ccccc1 | -0.547 |
| CCOC(=O)N1CCN(C(=O)C2CCCN(S(=O)(=O)c3ccc(C)cc3)C2)CC1 (stereo not given) | 0.279 |

| Structure (SMILES) | z-score |
| --- | --- |
| O=S1(=O)NC(=NCc2ccccc2)c2ccccc21 | -0.152 |
| OCC[n+]1ccc(/C=C/c2c[nH]c3ccccc23)cc1 | -0.621 |
| Cc1ccc(C(=O)Nc2ccccc2Sc2ccccc2)cc1 | -0.104 |
| O=C(CN1CCC(n2nnc3ccccc32)CC1)Nc1ccc2c(c1)CCC2 | -0.702 |
| CC(/C=N/NC(=O)c1c(Br)cnn1C)=C\c1ccccc1 | active: 3.16 |
| COc1ccc(C(NC(=O)c2ccccc2F)NC(=O)c2ccccc2F)cc1 | -0.342 |
| O=C(O)/C=C/C(=O)Nc1cccc(C(F)(F)F)c1 | -0.096 |
| C/C(Cl)=C/CSc1nn2c(=O)c3ccccc3nc2s1 | 0.0556 |
| O=C(NCCO)/C(=C\c1ccc2c(c1)OCO2)NC(=O)c1ccc(Br)cc1 | -0.293 |
| O=C1c2ccccc2C(=O)C1c1ccnc2ccccc12 | -0.187 |
| CCC(CC)c1nnc(NC(=O)c2ccc(N3CCCC3=O)cc2)s1 | 0.191 |
| CCCC(=O)Nc1ccc(S(=O)(=O)N2CCOCC2)cc1 | 0.133 |
| Cc1sc2nc(C3CC3)nc(SCC(=O)NCc3ccco3)c2c1C | 0.399 |
| O=C1CCc2cc(S(=O)(=O)N3CCCC3C(=O)NC3CCCCCCC3)ccc2N1 (stereo not given) | -0.122 |
| CCC(C(=O)Nc1cnccn1)c1ccccc1 (stereo not given) | 0.435 |
| Cc1ccc(CNC(=O)C(C)OC(=O)c2cccs2)cc1 (stereo not given) | -0.177 |
| CCCN(CCC)C(=O)c1cc(-c2ccc3c(c2)OCO3)nc2ccccc12 | -0.399 |
| CC(C)OC(=O)[C@H]1[C@H](c2ccc(Cl)cc2)[C@@](C#N)(C(N)=O)[C@@H]2C=CC(C(N)=O)=CN21 | 0.0606 |
| CN1CCN(c2ccccc2NC(=O)c2cc(Br)ccc2Cl)CC1 | 0.944 |
| COc1ccc2c(=O)cc(-c3ccccc3)n(C)c2c1 | -0.368 |
| Cc1c(N2C(=O)c3ccc4c5c(ccc(c35)C2=O)CC4)c(=O)n(-c2ccccc2)n1C | -0.172 |
| CCOC(=O)N1CCN(C(=O)C2CCC(=O)N2C(C)C)CC1 (stereo not given) | -0.285 |

| Structure (SMILES) | z-score |
| --- | --- |
| CN(C)c1ccc(/C=N/NC(=O)c2ccco2)cc1 | 0.819 |
| O=C(O)Cn1cc(C(=O)c2ccco2)c2ccccc21 | -0.378 |
| COc1ccc(CCNC(=O)CC2Nc3ccccc3NC2=O)cc1OC (stereo not given) | -0.291 |
| Cc1ccccc1N1C(=O)C2C3CC(=O)C(c4ccccc43)C2C1=O (stereo not given) | -0.248 |
| CCNC(=O)OCC(CC)NC(=O)OCC(C)C (stereo not given) | -0.305 |
| CCOc1ncccc1C(=O)N(C)CC(=O)Nc1ccc(F)cc1 | 0.103 |
| O=c1[nH]c(CN2CCN(c3ccccc3O)CC2)nc2ccccc12 | -0.0786 |
| O=C(Nc1nc2ccc(S(=O)(=O)N3CCCC3)cc2s1)c1ccco1 | -0.299 |
| N#Cc1ccccc1CSc1ccccn1 | 0.253 |
| COc1cccc(NC(=O)CN2C(=O)COc3ccc(Cl)cc32)c1 | 0.129 |
| CCOC(=O)C1CCCN(C(=O)/C=C/c2ccc([N+](=O)[O-])cc2)C1 (stereo not given) | -0.161 |
| COc1ccc(-n2cnnc2SCC(=O)Nc2cc(S(=O)(=O)N3CCCCC3)ccc2C)cc1 | 0.371 |
| CCOC(=O)c1ccccc1Cc1nc2ccccc2c(=O)[nH]1 | -0.605 |
| C=CCn1c(COc2ccc(F)cc2)nnc1SCC(=O)c1c[nH]c2c(CC)cccc12 | -0.748 |
| O=C(Nc1ccccc1C(=O)N1CCN(c2ccccc2)CC1)c1ccco1 | -0.223 |
| Cc1ccc(S(=O)(=O)Cn2nnnc2CN(Cc2ccco2)Cc2cccs2)cc1 | 0.0681 |
| CCOC(=O)Cc1csc(NC(=O)C2C3C=CC(C3)C2C(=O)O)n1 (stereo not given) | -0.0933 |
| COC(=O)C1C(=O)C2=C(CC1C)NC(=O)CC2c1ccccc1 (stereo not given) | -0.113 |
| Cc1ccc(/C=C/C(=O)O)cc1S(=O)(=O)NCCCO | -0.00281 |
| N#Cc1ccccc1NC(=O)CSc1nccn1CCc1ccccc1 | -0.52 |
| COCCn1c(C)cc(C(=O)CSc2nc(C)nc3sc4c(c23)CCC4)c1C | 0.18 |
| O=c1c(Cl)c(N2CCN(S(=O)(=O)c3ccccc3)CC2)cnn1-c1ccccc1 | -0.079 |

| Structure (SMILES) | z-score |
| --- | --- |
| Cc1c(CCO)c(=O)n(-c2ccccc2)n1S(=O)(=O)c1c(Cl)cc(Cl)cc1Cl | 0.632 |
| COC(=O)c1sccc1NC(=O)Cc1ccc(Br)cc1 | -0.0914 |
| CCOC(=O)C(C)N1C(=O)S/C(=C/c2cc(C)n(-c3ccccn3)c2C)C1=O (stereo not given) | -0.364 |
| O=C(OC1CCCCC1=O)c1cccc(S(=O)(=O)NCc2ccccc2)c1 (stereo not given) | -0.182 |
| CCOC(=O)c1nnn(-c2nonc2N)c1CN(CC)c1ccccc1 | -0.502 |
| COCCNC(=O)COc1ncnc2ccc(Br)cc12 | -0.444 |
| CCN(C(=O)CSc1nnc(Cn2nnc3ccccc32)o1)c1nc(-c2ccccc2)cs1 | -0.3 |
| CN1CCN(C2=C(Cl)C(=O)N(CCc3ccccc3)C2=O)CC1 | -0.0292 |
| CCOC(CNC(=O)c1ccc(N2CCc3ccccc32)c([N+](=O)[O-])c1)OCC | -0.884 |
| O=C(N/C=C/c1ccccc1)Nc1ccc(Cl)cc1 | -0.132 |
| Cc1oc2c(CN3CCCC3)c(O)ccc2c(=O)c1-c1ccccc1 | 0.23 |
| COc1ccc(C(=O)c2ccc(OC)c(N)c2)cc1N | 0.346 |
| Cc1ccc(NC(=O)CSc2ccc(-c3ccc4c(c3)OCO4)nn2)cc1F | -0.264 |
| O=S(=O)(/N=C(/c1ccccc1Cl)N1CCOCC1)c1ccccc1 | 0.284 |
| COc1ccc(Br)cc1/C(C)=N/NC1=NCCN1 | 0.905 |
| CC(/C=N/Nc1nc(N2CCCCC2)nc(N2CCCCC2)n1)=C\c1ccccc1 | -0.494 |
| Cn1c(C(=O)NCC2CCCO2)cc2c(=O)n3ccccc3nc21 (stereo not given) | 0.237 |
| CC(C)n1nnc2ccccc2c1=O | -0.0751 |
| O=C(NCc1ccc(Cl)cc1)c1ccc2nc[nH]c2c1 | -0.237 |
| CCCn1nnnc1SCC(=O)c1ccc2c(c1)OCCO2 | 0.105 |
| O=C(Oc1cccc(/C=N/Nc2nc(Nc3ccccc3)nc(N3CCOCC3)n2)c1)c1ccco1 | -0.146 |
| C/C(=N/NC(=O)CNc1ccc(C)cc1)c1ccc(Br)s1 | 0.214 |

| Structure (SMILES) | z-score |
| --- | --- |
| CCC(=O)Nc1ccc(C(=O)NNC(=O)c2cccs2)cc1 | -0.0896 |
| COC(=O)c1ccccc1NC(=O)C1CCCCC1C(=O)O (stereo not given) | -0.474 |
| O=C(CCCN1C(=O)c2ccccc2C1=O)N1CCN(c2ccccn2)CC1 | 0.451 |
| CN=C(Nc1cc(C)nn1-c1ccccc1)c1ccccc1F | 1.38 |
| COc1cc(NC(=O)C2=C(N3CCOCC3)/C(=C/c3ccc(Cl)cc3)CC2)cc(OC)c1OC | -0.0934 |
| Cc1ccc(C)c(NC(=O)c2sc(Cl)nc2-c2ccccc2)c1 | -0.303 |
| CCOC(=O)c1cc(CC)sc1/N=C/C1C(=O)CC(C)(C)CC1=O | -0.586 |
| CCN(CC(=O)N1CCCCCC1)S(=O)(=O)c1ccc(Cl)cc1 | -0.404 |
| CCCOP(=O)(c1ccc(N(C)C)cc1)C(O)c1ccccc1OC (stereo not given) | -0.208 |
| N#Cc1cccc(NC(=O)Cn2c3[n+](c4ccc(C(F)(F)F)cc42)CCCCC3)c1 | 0.176 |
| CN(C)c1ccc(C=Nc2ccc(N(C)C)cc2)cc1 | 0.0134 |
| CN1/C(=C\C=C2\N=C(c3ccc(F)cc3)OC2=O)C(C)(C)c2ccccc21 | -0.211 |
| CC1(C)CC(=O)c2cc(C(=O)NC3CCSC3=O)c(=O)n(-c3ccccc3)c2C1 (stereo not given) | 0.789 |
| Cc1cc(C)cc(OCC(=O)Nc2ccc(N3CCN(C(=O)c4ccco4)CC3)cc2)c1 | -0.15 |
| CNC(=O)c1nnn(Cc2ccccc2)c1NC(=O)C(F)(F)F | -0.68 |
| COc1cc(NC(=O)COC(=O)/C=C/c2c(C)nn(C3CCS(=O)(=O)C3)c2Cl)cc(OC)c1OC (stereo not given) | -0.105 |
| CCOc1ccc(NS(=O)(=O)c2ccc(NC(=S)NC(=O)CC(C)C)cc2)cc1 | 0.468 |
| C=CCN(c1ccc(C(=O)N2CCCC2)cc1)S(C)(=O)=O | 0.0827 |
| N#C/C(C(=O)NCCc1ccccc1)=C1/N=C(NC(=O)c2cccs2)c2ccccc21 | -0.118 |
| O=C(NOC(=O)c1cc(Br)ccc1Cl)c1cccs1 | 0.635 |
| CC(C)(C)c1ccc(C(=O)c2c[nH]c(C(=O)NCCCN3CCOCC3)c2)cc1 | 0.183 |
| O=c1c2ccccc2nc(SCc2nnc(-c3ccccc3)o2)n1-c1ccc(F)cc1F | -0.56 |
